Assay results published in publication PMC4336329 (PLoS ONE, 2015).
The campaign covered roughly 310,000 compounds. About 14,000 (4.5%) showed an effect of 50% or more. Effects have a minus sign here. Some of the results follow.

Molecular target: human ether-à-go-go-related gene (hERG) potassium channel (human, UniProt Q12809)
Assay: primary screen, population patch clamp on CHO cells stably expressing hERG
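Note: peak tail current of the secondary pulse compared with the same well before compound.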

human ether-à-go-go-related gene (hERG) potassium channel, sequence (Q12809 whole entry, looked up): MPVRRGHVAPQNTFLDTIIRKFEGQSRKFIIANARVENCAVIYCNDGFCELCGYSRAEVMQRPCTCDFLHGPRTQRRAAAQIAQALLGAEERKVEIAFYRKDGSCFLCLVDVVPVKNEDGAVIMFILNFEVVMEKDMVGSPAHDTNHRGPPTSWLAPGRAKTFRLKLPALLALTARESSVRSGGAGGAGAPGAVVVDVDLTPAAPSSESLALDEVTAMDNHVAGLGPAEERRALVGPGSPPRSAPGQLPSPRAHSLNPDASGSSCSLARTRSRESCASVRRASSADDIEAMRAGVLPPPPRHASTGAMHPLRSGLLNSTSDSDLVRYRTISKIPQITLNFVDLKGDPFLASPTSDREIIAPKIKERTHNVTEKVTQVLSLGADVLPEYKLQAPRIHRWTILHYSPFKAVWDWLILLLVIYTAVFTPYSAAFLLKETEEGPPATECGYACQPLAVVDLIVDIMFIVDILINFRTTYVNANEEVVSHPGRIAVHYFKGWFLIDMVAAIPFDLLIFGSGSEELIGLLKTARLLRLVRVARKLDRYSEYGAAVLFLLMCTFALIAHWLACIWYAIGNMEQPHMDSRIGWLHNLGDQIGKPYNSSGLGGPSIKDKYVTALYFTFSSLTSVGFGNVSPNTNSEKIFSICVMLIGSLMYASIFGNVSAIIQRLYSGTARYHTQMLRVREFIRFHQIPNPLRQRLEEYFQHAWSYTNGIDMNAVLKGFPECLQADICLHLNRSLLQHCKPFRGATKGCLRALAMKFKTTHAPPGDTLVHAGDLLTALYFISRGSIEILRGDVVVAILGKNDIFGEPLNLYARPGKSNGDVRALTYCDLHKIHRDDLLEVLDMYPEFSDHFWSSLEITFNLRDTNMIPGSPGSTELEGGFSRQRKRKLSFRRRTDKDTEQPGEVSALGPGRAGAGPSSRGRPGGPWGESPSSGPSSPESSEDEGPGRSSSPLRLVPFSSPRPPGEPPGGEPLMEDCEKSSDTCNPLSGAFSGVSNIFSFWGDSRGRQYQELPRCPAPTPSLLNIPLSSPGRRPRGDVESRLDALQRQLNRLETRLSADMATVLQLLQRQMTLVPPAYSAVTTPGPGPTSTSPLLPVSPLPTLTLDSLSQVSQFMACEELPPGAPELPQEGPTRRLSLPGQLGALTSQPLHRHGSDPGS

Compound | hERG current change (%, negative = inhibition) at 10uM
CN(CCO)c1ncnc2nc[nH]c12 | -2.24%
Cc1ccccc1NC(=O)C1C2CCC(O2)C1C(=O)O (centres unmarked) | 15.8%
N#C/C(=C(/O)CSc1n[nH]c(N)n1)c1nc2ccccc2[nH]1 | 2.14%
S=C(NCCc1ccc(Cl)cc1)NC1CCCCC1 | 9.61%
CC(=O)c1ccc(OCc2cc(C(=O)NC(C)Cc3ccccn3)no2)cc1 (centres unmarked) | -4.3%
CN(c1cccc(NC(=O)CN(c2ccc(F)cc2)S(C)(=O)=O)c1)S(C)(=O)=O | 14.8%
N#Cc1c(-c2ccc(Cl)cc2)c2c([nH]c1=S)CCCC2 | 15%
CC(C)c1nnc(SCC(=O)N2CCN(C(=O)c3ccco3)CC2)n1N | 19.8%
Cc1ccc(NC(=O)/C(C#N)=C/c2cn(CC(=O)NCc3ccco3)c3ccccc23)cc1C | 22.9%
Cc1c(C(=O)N2CCC3(CC2)OCCO3)oc2ccc(S(=O)(=O)N3CCCCC3)cc12 | -0.666%
O=[N+]([O-])c1cc(CN2CCCC2)ccc1Sc1ccc(Cl)cc1 | -93.8%
CC1CCCCC1NC(=O)NC(=O)CCl.Cl (centres unmarked) | 14.3%
CN(CC(=O)Nc1cccc(F)c1)C(=O)CCc1nc2ccccc2c(=O)[nH]1 | 2.42%
CCCCCCCN1C2=NCCCN2c2ccccc21.Cl | -58.5%
COc1ccc([N+](=O)[O-])cc1NS(=O)(=O)c1ccc(C(=O)N2CCCC2)cc1 | -18.8%
CCc1cc2c(SCC(=O)NCC3CCCO3)ncnc2s1 (centres unmarked) | -1.05%
COC(=O)/C=C1\C(=O)N(c2nc3ccc(OC)cc3s2)C(=S)N1c1ccc(F)cc1 | -7.23%
CN(C)CCCNC(=O)C(=O)NCC1OCCN1S(=O)(=O)c1cccs1 (centres unmarked) | 8.26%
O=C(NC1CCCc2ccccc21)C1CCN(S(=O)(=O)c2ccccc2F)CC1 (centres unmarked) | -13.7%
COc1ccc(OC)c(-c2cn(S(=O)(=O)c3ccccc3)nc2N)c1 | -9.63%
Cn1c2c(c(=O)n(C)c1=O)C(c1ccc(C(F)(F)F)cc1)CC(=O)N2 (centres unmarked) | 12.3%
CCCSc1nc2c(cnn2-c2ccc(F)cc2)c(=O)[nH]1 | 6.84%
CCOc1ccc(C2=Nn3c(nnc3-c3ccccc3OC)SC2)cc1 | -63.4%

Compound | hERG current change (%, negative = inhibition) at 10uM
N#C/C(=C\c1ccc(F)c(F)c1)C(=O)NC1CCCCC1 | 5.58%
CC(C)C(=O)Nc1cccc(NC(=S)NC(=O)c2ccc(Cl)cc2)c1 | -1.09%
O=C(Nc1ncc2c(n1)CC(c1ccc(Cl)cc1)CC2=O)c1ccco1 (centres unmarked) | -71.6%
COc1ccc(C)cc1NC(=O)CSc1nnc(CC(=O)Nc2ccccc2C)n1C | -18%
CCCC(c1nnnn1CC(=O)OCC)N(Cc1cc2c(C)cc(C)cc2[nH]c1=O)C1CCCC1 (centres unmarked) | 22.1%
CCOc1ccccc1C1C(C#N)=C(N)Oc2n[nH]c(CC)c21 (centres unmarked) | -4.75%
CCOc1ccc(NC(=O)[C@@H]2CCC(=O)N2C2OC(=O)c3ccccc32)cc1 (some centres unmarked) | 8.47%
O=C(CC(=O)Nc1ccc(F)cc1F)Nc1ccc(F)cc1F | 11.5%
CC(=O)c1cccc(NC(=O)NC2CCCCCCC2)c1 | 8.57%
O=C(Nc1cccc(NC(=O)c2ccc(-c3ccc(Br)cc3)o2)c1)c1ccco1 | -4.99%
Cc1cc(C)c(C(=O)CSc2nnc(N)s2)cc1C | 0.147%
CCN(CC)c1ccc([C@H]2[C@@H]3CCCC[C@]3(O)CCN2CC(=O)NCc2ccco2)cc1 | -0.465%
CC(=O)C1=C(C)N(c2ccccc2)C(=O)C1(NS(=O)(=O)c1ccc(N)cc1)C(F)(F)F (centres unmarked) | 16.3%
O=C(COc1ccccc1Cl)Nc1nnc(S(=O)(=O)N2CCCC2)s1 | 23.9%
O=C(CSc1nnc2ccccn12)N1CCc2ccccc2C1 | 2.72%
CCNC(=S)N1CCC(n2cnc3ccccc32)CC1 | -20.8%
CSc1ccc(CN2CCN(Cc3ccccc3)C(CCO)C2)cc1 (centres unmarked) | -56.8%
CC1=C(C(=O)OC(C)C)C(c2ccccc2)NC(=O)N1C (centres unmarked) | 11.3%
Cc1nn(CC(=O)N2CCCC2)c(=O)c2cc3cc(F)ccc3n12 | -3.41%
O=C(Nc1ccc(Br)cc1)N1C[C@H]2C[C@@H](C1)c1cccc(=O)n1C2 | -0.768%
Cc1cc(C)c(NC(=O)COC(=O)C2CCC2)c(Cl)c1 | 22.8%
Cc1ccc(/C=C2\SC(=S)N(CCCC(=O)Nc3cccnc3)C2=O)cc1 | 0.424%
Cc1ccc(CC(=O)N2CCC(c3nc4c(nnn4Cc4ccccc4)c(=O)[nH]3)CC2)cc1 | -22.7%

Compound | hERG current change (%, negative = inhibition) at 10uM
COc1ccccc1C(=O)Nc1ccc2c(c1)nc1n2CCN(Cc2ccccc2)C1 | -10%
COc1ccc(OCc2nnc(SCC(=O)N3C(C)CCCC3C)o2)cc1 (centres unmarked) | -14.7%
Cc1cc(C)c(NC(=O)CCN2CCN(Cc3ccccc3)CC2)c(C)c1 | -33%
NC(=O)NC(=O)CSc1nnc(-c2ccco2)n1Cc1ccccc1 | 5.78%
CC(C(=O)Nc1ccccc1C(=O)O)n1c(C(F)(F)F)nc2ccccc21 (centres unmarked) | 8.68%
COc1ccccc1CNC(=O)CCNC(=O)Cn1cnc2ccccc2c1=O | 12.1%
Cc1cc(C)c(S(=O)(=O)N(C)c2ccccc2)c(C)c1 | -3.24%
COc1ccc(Cc2nnc(Nc3ccccc3OC)[nH]c2=O)cc1 | 10.6%
O=C(NCC(=O)N1CCN(c2ccccc2O)CC1)c1ccc(Br)o1 | -4.93%
Cc1ccccc1C(C(=O)NC1CCCCC1)N(C(=O)c1ccccn1)c1cccnc1 (centres unmarked) | 5.92%
Cc1ccc(C)c(S(=O)(=O)N2CCN(C(=O)c3cnccn3)CC2)c1 | 1.38%
CCOCCCNC(=O)C(NC(=O)c1ccccc1O)c1ccccc1 (centres unmarked) | 7.92%
O=C(CCn1cnc(-c2ccccc2)c1-c1ccccc1)N/N=C/c1ccc(O)cc1 | -23.9%
CC(=O)NNC(=O)c1sc(=S)n2c1[nH]c(=O)c1sccc12 | 18.7%
CC1CC(=O)Nc2ccccc2N1C(=O)CN1CCN(C=O)CC1 (centres unmarked) | 12.4%
CN(C)c1ccc(CNC(=O)c2cc(S(=O)(=O)N3CCOCC3)cn2C)cc1 | -7.48%
CC(C)CCNC(=O)C1(O)c2ccccc2NC(=O)N1c1ccc(Cl)cc1 (centres unmarked) | 18.9%
N#Cc1c(-c2cccs2)cc(C2CC2)nc1SCC(N)=O | -0.255%
O=C(CSc1ccc(F)cc1)NCCc1ccc(Cl)cc1 | 0.223%
CCN(CCn1cccn1)C(=O)CC1C(=O)NCCN1Cc1ccc(F)c(F)c1 (centres unmarked) | 9.44%
Cc1cc(C)c2cc(C#N)c(N3CCCN(S(=O)(=O)c4ccccc4)CC3)nc2c1 | 2.07%
COc1ccccc1NC(=O)C(C/C=C(/C)Cl)C(C)=O (centres unmarked) | -8.18%
CC1Cc2ccccc2N1c1ncnc2nc[nH]c12 (centres unmarked) | -6.58%

Compound | hERG current change (%, negative = inhibition) at 10uM
CN(Cc1ccccc1)C(=O)c1ccccc1Br | -6.53%
COc1ccc2nc3ccccc3nc2c1N | 4.42%
Cc1nc(Cl)sc1C(=O)Nc1cccc(Cl)c1C | -2.08%
O=C(c1ccc(S(=O)(=O)N2CCCCC2)cc1)N1CCN=C1SCc1cccnc1 | -4.75%
O=C(NC(=S)NNC(=O)c1ccco1)c1ccc(Br)cc1 | 15.6%
CC(=O)N(Cc1cc2cc(C)ccc2[nH]c1=O)c1cccc(C)c1C | 21.6%
COc1cc(-c2ccc(=O)[nH]n2)ccc1OC(F)F | -0.566%
Cc1ccc(S(=O)(=O)NCc2ccc(C(=O)N3CCCC3)cc2)cc1 | -7.85%
CC1(C)Cc2c(cnn2-c2cccc(F)c2)C(NC(=O)CCN2CCCC2=O)C1 (centres unmarked) | -3.51%
CCOc1cc(/C=N/NC(=S)Nc2ccccc2C(F)(F)F)ccc1OCC(=O)N1CCOCC1 | -8.18%
O=C(O)C1CCCCC1C(=O)Nc1nccs1 (centres unmarked) | 3.38%
CCOC(=O)/C=C/C(=O)Nc1cccc([N+](=O)[O-])c1 | -7.8%
CCN(CC)S(=O)(=O)c1cccc(C(=O)NCC(=O)OCC(=O)NCc2ccccc2)c1 | -7.41%
CCOC(=O)N1CCC(N(CCOC)C(=S)Nc2cccc(SC)c2)CC1 | -27.2%
O=C(NC1CCCc2ccccc21)c1ccc2c(c1)OCO2 (centres unmarked) | -15.8%
Cc1cc(C)n(CC(O)COc2ccccc2)n1 (centres unmarked) | 12.9%
N#C/C(=C(/O)C(Cl)(Cl)Cl)c1nc2ccccc2[nH]1 | 8.77%
O=C(Nc1ccc(Cl)cc1C(=O)c1ccccc1)c1ccco1 | 8.38%
COc1ccc(C2CC(c3ccc(OC)cc3O)=NN2C(=O)c2ccccc2)cc1 (centres unmarked) | 8.48%
COc1ccc(C2CC(c3cccs3)=NN2C(=O)c2ccc(Br)o2)cc1 (centres unmarked) | 8.76%
